# From the supplement of paper PMC3334620
# The full ranking holds about 33,000 sequences; the median of “E-score (-0.5 to 0.5)” is about -0.021, and the highest 2% start at about 0.32. The list shows a part of the results.
# Target: T1, Zap1 (UniProt P47043)
# T1 sequence: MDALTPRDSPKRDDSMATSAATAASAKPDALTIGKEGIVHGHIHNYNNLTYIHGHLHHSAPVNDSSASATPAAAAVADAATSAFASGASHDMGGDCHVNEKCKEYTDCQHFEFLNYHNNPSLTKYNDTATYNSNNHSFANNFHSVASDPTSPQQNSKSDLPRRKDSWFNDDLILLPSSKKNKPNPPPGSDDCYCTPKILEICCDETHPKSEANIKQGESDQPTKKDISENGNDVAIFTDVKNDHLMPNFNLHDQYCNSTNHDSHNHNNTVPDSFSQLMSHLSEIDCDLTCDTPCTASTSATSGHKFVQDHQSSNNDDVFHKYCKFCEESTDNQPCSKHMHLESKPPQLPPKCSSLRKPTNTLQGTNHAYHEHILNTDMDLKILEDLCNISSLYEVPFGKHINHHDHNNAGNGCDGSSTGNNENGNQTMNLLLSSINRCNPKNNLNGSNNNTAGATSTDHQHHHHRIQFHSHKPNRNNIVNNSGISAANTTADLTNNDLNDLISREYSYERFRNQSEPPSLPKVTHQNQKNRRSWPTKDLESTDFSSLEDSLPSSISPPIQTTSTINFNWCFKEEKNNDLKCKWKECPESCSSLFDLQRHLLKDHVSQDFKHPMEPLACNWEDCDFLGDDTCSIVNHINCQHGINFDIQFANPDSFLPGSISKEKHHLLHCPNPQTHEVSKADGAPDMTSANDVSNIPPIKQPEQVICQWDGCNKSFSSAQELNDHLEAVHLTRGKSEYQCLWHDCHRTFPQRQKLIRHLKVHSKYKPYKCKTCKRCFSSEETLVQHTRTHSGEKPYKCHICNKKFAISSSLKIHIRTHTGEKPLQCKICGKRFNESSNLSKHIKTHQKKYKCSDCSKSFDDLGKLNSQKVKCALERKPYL
# Assay: PBM E-score (8-mer binding enrichment) (E-score (-0.5 to 0.5)); higher = stronger / more preferred TF binding; most listed sequences are background and not binding sites
# Conditions: protein concentration: 200 nM; construct: GST-full length
# Method in brief: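 Universal all-10-mer Agilent arrays, double-stranded by primer extension on fresh or once-stripped slides, were probed with about 100-200 nM GST-tagged yeast transcription factors made by PURExpress. Fluorescent anti-GST detected bound protein, and masliner normalised the scans. E-scores from the Universal PBM Analysis Suite were given to each ungapped eight-base word pooled with its reverse complement.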
row,Sequence,PBM E-score
1,AGCGACGA,-0.256
2,TACAATAA,0.212
3,AGAGACCG,0.124
4,ATTGTCAC,0.108
5,GCCCAATA,0.0964
6,CCTAACCA,0.309
7,GGGTAGCA,0.186
8,TCACCAGA,0.015
9,GGTCGTTA,0.159
10,CCCCGCTA,0.00458
11,AGGCGGCG,-0.125
12,CACTGCCC,-0.19
13,CATCCGAA,0.068
14,CGGCCGTC,-0.0777
15,AAAGCGGA,-0.0151
16,CTTGGAGC,-0.373
17,GCACCTCC,-0.116
18,GCCGTATA,0.0734
19,CATGGAGC,-0.0785
20,CGTTAAAA,0.0117
21,ACTATCCC,-0.221
22,CGGGTAAG,-0.078
23,ACCCCCGG,-0.0785
24,GGAACACA,0.0058
25,AAGAGCGC,-0.0346

row,Sequence,PBM E-score
1,AACGGTAT,0.0478
2,CGCACAGC,-0.212
3,CGCGGATC,-0.0146
4,GCCCCTCC,-0.056
5,AATGGGTA,0.287
6,CCCAGTAC,-0.124
7,CCTGCATA,-0.0917
8,AGGACTTA,-0.167
9,AAGTAAGG,0.0538
10,TACTCGAA,-0.0192
11,AAAGCATC,-0.115
12,AGTTCCCC,-0.167
13,AATCGACC,0.0231
14,GTGATCAC,0.231
15,ATGGGGAA,0.0321
16,AGTGAAGC,-0.0995
17,AAGGGGGC,-0.336
18,AGCTGAAC,-0.182
19,AAATCTGG,0.168
20,GGTAAACA,0.205
21,ATATAATG,0.0611
22,ACTGTGGG,-0.145
23,AGATTGCA,0.0608
24,CCGGGCAA,-0.2
25,CGTAGATA,-0.197

row,Sequence,PBM E-score
1,GCGACACA,-0.085
2,CACCAGTC,-0.137
3,ATCGTAGG,0.0884
4,GCGTTACC,0.0732
5,CCGCGAGC,-0.139
6,GGGAGACA,-0.19
7,AATGTGCC,-0.265
8,GTGTCGCA,-0.0901
9,CCCGCGTC,0.0232
10,TCCTTTAA,0.0669
11,GAGTAGCC,-0.029
12,CGAGTGAC,-0.0196
13,CGGGTTAC,0.439
14,ACTTTGCT,-0.225
15,GCTGCAGC,-0.0886
16,TAAGGTAA,0.271
17,GCGGATTA,0.0247
18,AACGGATC,0.0545
19,CGATTAGC,-0.148
20,ATCATTCA,0.107
21,CGCTAGAG,-0.106
22,CTTCAGGC,-0.133
23,CAAGGGTG,0.262
24,GAGGTGTA,-0.163
25,CTACCGTC,0.145

row,Sequence,PBM E-score
1,CTAGAGAG,-0.00179
2,ACCCCTTA,0.344
3,GGAACGAA,0.0755
4,GTGTAAGA,-0.0244
5,GCTTCGAA,0.153
6,AGACAACT,-0.0655
7,ATATGTGG,0.0354
8,CTGCGCGA,-0.123
9,GCCTTTAA,0.0959
10,AATTCGGC,-0.136
11,CGTCATAC,0.0441
12,GAGAGAGA,-0.158
13,CCGTCCCA,-0.0821
14,ATGATAAT,0.0564
15,ATGCTCGA,-0.105
16,GGCCTGGA,-0.146
17,CACAAGTC,0.0234
18,CTTTGACA,0.0496
19,CACCAGCC,-0.00221
20,ACGGATAC,0.234
21,TATAGCGA,-0.00906
22,CTTCGCAA,-0.00995
23,GGGCCATA,0.0915
24,TCTCTTAA,-0.0368
25,AAACATGA,0.141

row,Sequence,PBM E-score
1,ACCGGTAG,0.131
2,GATGGGTA,0.128
3,AAAGTGGC,-0.0301
4,AATAATCG,0.084
5,GCTCATAA,0.0749
6,ATCAGGTC,-0.0975
7,AGTGTCCC,0.0964
8,ATCTTCCA,-0.0755
9,GCCTGTAA,0.00746
10,ATATCTAC,-0.036
11,GCGACTAA,0.0519
12,CGGTTGTC,0.279
13,CCCAGGCC,-0.085
14,AGCTCGAC,-0.118
15,ATTACCTA,0.216
16,AGTTATAG,0.148
17,ACGTTTGA,0.0134
18,GCCAGAAC,-0.226
19,CTTGGCAC,0.0731
20,ATATAGCC,0.114
21,CGGGTAGC,0.237
22,CTTGGCCA,-0.0871
23,AGGAAGAA,-0.195
24,AGCTTTAC,-0.171
25,ACGGGGAC,-0.122

row,Sequence,PBM E-score
1,GAAAGAAC,0.193
2,CGTTGACA,-0.0771
3,GCCCAGCA,-0.0822
4,CAGAGACG,-0.0148
5,AGTGAGAG,-0.236
6,AGATAACC,0.435
7,ACTACCAA,0.125
8,ACCGCGGA,0.207
9,CCCACAGA,0.102
10,GTGGTGGA,-0.063
11,ATCAGATA,0.0111
12,CGGATAGA,-0.00993
13,AGACTAGG,-0.0481
14,AACCTCGT,0.322
15,ATCTTAGG,0.0407
16,GGTACCTA,0.398
17,CGATTAGA,-0.0297
18,CTGTACTC,-0.233
19,CGACTGAA,-0.106
20,ACCCCCCA,-0.0827
21,CGCTCCGA,0.0725
22,ACGCTTCC,-0.15
23,ACAATGGA,0.159
24,GAAAGATA,0.0248
25,GGTGGCCA,0.0278

row,Sequence,PBM E-score
1,AATCCGAC,-0.12
2,AGTGGGCG,-0.0679
3,CGTACTAA,0.0675
4,CAAGCGTG,-0.0307
5,TCTATACA,-0.0532
6,GACTAAAC,-0.24
7,GATCGAGA,-0.00057
8,CAAAACCG,0.199
9,CGGAATGA,-0.00751
10,ATGCAGCC,-0.0648
11,AGACAGAG,-0.0767
12,AAGCGAGG,-0.0248
13,CGACACAC,-0.0284
14,ATACGGTC,0.0782
15,ATTGGTTC,0.141
16,ATTGCGCA,-0.0952
17,GGACTCGA,-0.174
18,CGAAGCTC,-0.169
19,TACCACGA,0.0949
20,GGCTTCTA,-0.17
21,ACACCACC,-0.0272
22,GCCATTCC,-0.231
